Experimental findings from patent publication US20070219159A1, “CYCLODEXTRIN COMPOSITIONS AND METHODS OF TREATING VIRAL INFECTIONS” (priority 2002, published 2007) are described below.

The experiment concerns HSV-1 strain KOS1.1. As to the kind of experiment: CPE reduction assay in Vero cells, HSV-1. It is filed as cell-based. The following applies: HSV-1 KOS1.1, MOI 2; β-CD 4.5 and 4.95 mg/ml.

For the molecule `OC[C@H]1O[C@@H]2O[C@H]3[C@H](O)[C@@H](O)[C@@H](O[C@H]4[C@H](O)[C@@H](O)[C@@H](O[C@H]5[C@H](O)[C@@H](O)[C@@H](O[C@H]6[C@H](O)[C@@H](O)[C@@H](O[C@H]7[C@H](O)[C@@H](O)[C@@H](O[C@H]8[C@H](O)[C@@H](O)[C@@H](O[C@H]1[C@H](O)[C@H]2O)O[C@@H]8CO)O[C@@H]7CO)O[C@@H]6CO)O[C@@H]5CO)O[C@@H]4CO)O[C@@H]3CO` [BCD, β-cyclodextrin], the “antiviral protection of Vero cells, sub-optimal concentrations alone” value is “marginal antiviral protection”.
